# Among all 310,000 compounds or so, about 2,200 (0.71%) showed an effect of 50% or more. Effects have a minus sign here. The list shows a part of the results.
# Target: human ether-à-go-go-related gene (hERG) potassium channel (human, UniProt Q12809)
# Assay: primary screen, population patch clamp on CHO cells stably expressing hERG
# Sequence of human ether-à-go-go-related gene (hERG) potassium channel (Q12809 whole entry, looked up): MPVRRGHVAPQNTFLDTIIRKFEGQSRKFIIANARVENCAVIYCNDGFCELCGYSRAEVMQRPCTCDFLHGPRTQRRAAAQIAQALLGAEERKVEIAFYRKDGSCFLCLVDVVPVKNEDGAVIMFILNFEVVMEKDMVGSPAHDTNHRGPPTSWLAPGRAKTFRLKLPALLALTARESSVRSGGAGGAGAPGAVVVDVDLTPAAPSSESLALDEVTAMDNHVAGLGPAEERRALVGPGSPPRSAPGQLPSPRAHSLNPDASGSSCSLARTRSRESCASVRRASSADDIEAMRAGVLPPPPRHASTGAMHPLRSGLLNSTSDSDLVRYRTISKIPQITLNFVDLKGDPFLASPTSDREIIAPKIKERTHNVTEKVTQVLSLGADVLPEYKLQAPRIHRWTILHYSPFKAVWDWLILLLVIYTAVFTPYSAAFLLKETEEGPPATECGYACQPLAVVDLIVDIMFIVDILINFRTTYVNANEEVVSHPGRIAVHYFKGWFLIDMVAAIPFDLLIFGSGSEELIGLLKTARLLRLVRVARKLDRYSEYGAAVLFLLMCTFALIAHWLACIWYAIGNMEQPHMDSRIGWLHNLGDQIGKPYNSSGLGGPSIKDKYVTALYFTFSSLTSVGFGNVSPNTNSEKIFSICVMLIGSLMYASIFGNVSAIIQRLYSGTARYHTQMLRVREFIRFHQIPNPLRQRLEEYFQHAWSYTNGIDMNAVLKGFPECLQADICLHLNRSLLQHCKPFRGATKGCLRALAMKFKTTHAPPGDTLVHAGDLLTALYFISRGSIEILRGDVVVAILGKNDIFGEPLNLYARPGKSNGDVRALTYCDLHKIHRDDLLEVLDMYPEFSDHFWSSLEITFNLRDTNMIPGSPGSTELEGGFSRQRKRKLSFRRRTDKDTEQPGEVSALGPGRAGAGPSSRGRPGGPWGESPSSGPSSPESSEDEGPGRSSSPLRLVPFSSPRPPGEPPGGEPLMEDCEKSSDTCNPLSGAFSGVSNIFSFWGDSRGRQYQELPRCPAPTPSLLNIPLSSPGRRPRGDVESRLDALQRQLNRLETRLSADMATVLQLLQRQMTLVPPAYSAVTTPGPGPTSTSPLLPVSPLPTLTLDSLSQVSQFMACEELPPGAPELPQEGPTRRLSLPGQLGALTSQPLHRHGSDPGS
row,SMILES,"hERG current change (%, negative = inhibition) at 1uM [%]"
1,Cc1ccc(CNC(=O)C2CCCN(S(=O)(=O)c3c(C)[nH]c(=O)[nH]c3=O)C2)cc1 (stereo not drawn),5.72
2,CCN(CC)C(=O)c1ccc2nc3ccccc3nc2c1,8.4
3,COc1cc(C(=O)NNC(=O)C2CC=CCC2C(=O)O)cc(OC)c1OC (stereo not drawn),3.26
4,O=C(COc1ccc(S(=O)(=O)NC2CCCCC2)cc1)NCc1cccnc1,8.73
5,Cc1cc2c(c(=O)n1C)C(Cc1ccccc1)C(C#N)=C(N)O2 (stereo not drawn),9.8
6,Cc1ccc(/C=C2\SC(N3CCCC3)=NC2=O)cc1,6.27
7,COc1ccccc1C(=O)Nc1ccccc1SC(=O)c1ccccc1OC,18.2
8,Cc1ccc(C(=O)N2CCN(C(=O)N3CCOCC3)CC2)cc1,-3.75
9,Cc1ccc(C)c(-n2[nH]c3c4c(ccc3c2=O)C(=O)c2ccccc2C4=O)c1,11.4
10,O=C(Cc1ccccc1)Nc1ccc(C(=O)NCC2COc3ccccc3O2)cc1 (stereo not drawn),7.24
11,CC(C)Oc1cc(C(=O)NC2CCCCC2)c2ccccc2n1,7.21
12,Fc1cccc(-n2cc(-c3ccccc3)c3c(=S)nc[nH]c32)c1,19.2
13,CCn1c(CCNC(=O)c2ccc(C)cc2)nnc1SCc1ccc(Cl)c(Cl)c1,-4.81
14,COCCSc1nnc(NS(=O)(=O)c2ccccc2)s1,15.9
15,Cc1ccc(C(=O)Nc2ncc3c(Cl)cccc3n2)cc1,17.4
16,Cc1cccc(-c2cc(C(=O)Nc3cccnc3)c3ccccc3n2)c1,14.5
17,O=C(NC(=S)N1CCN(C2CCCCC2)CC1)c1ccccc1,-1.19
18,CC(=O)Nc1ccc(NC(=O)c2cccc3c2-c2ccccc2C3=O)cc1,9.53
19,O=c1[nH]c(-c2ccccc2)cnc1-c1ccccc1,12.7
20,O=C1NC(=O)/C(=C/c2ccc(O)cc2)S1,13
21,N#Cc1ccc(S(=O)(=O)N2CCCN(c3ccc(C(F)(F)F)cn3)CC2)cc1,-36.4
22,C=CCc1cccc(C=Nc2c[nH]c(=O)[nH]c2=O)c1O,12.2
23,CCNC(=O)NC(=O)C(C)OC(=O)C1CCN(S(=O)(=O)c2ccccc2F)CC1 (stereo not drawn),10

row,SMILES,"hERG current change (%, negative = inhibition) at 1uM [%]"
1,COc1cccc(N2C(=O)CC(Nc3ccc(N4CCOCC4)cc3)C2=O)c1 (stereo not drawn),13.3
2,O=c1cc(C(F)(F)F)nc(SCc2cccc3ccccc23)[nH]1,5.58
3,COc1ccc(OC)c(-c2cc(C(=O)N3CCc4ccccc4C3)no2)c1,5.48
4,CCS(=O)(=O)c1ccc2oc(Nc3ccc(OC)c(OC)c3)nc2c1,20.3
5,O=C(NCc1ccccn1)c1c(Cl)cccc1Cl,10.2
6,Cc1cc(C(=O)NCc2ccc(F)cc2)n(-c2ccccc2)n1,3.62
7,Cc1ccc2[nH]c3c(N4CCOCC4)ncnc3c2c1,10.1
8,CC(NCc1ccc(S(N)(=O)=O)cc1)C(=O)N1CCc2ccccc21 (stereo not drawn),4.06
9,CC(=O)N1CN(C2CCS(=O)(=O)C2)Cc2c1sc1c2CCCC1 (stereo not drawn),13.8
10,O=C1C=C(c2ccc(Cl)cc2)OC2(CCCC2)O1,14.6
11,COC(=O)C1=C(c2cccc(OC)c2OC)C[C@@H]2CC[C@H]1N2C(=O)NCC1CC1,1.97
12,O=C1C=C(NCCN2CCOCC2)CC(c2ccccc2)C1 (stereo not drawn),1.92
13,Cc1ccc(C(=O)Nc2nnc(CC(=O)N/N=C/c3ccc(O)c(O)c3)s2)cc1,12.1
14,OCCN1CCN(C(=S)NCCc2ccccc2)CC1,17.2
15,C/C(=N/O)c1cc(C(C)(C)C)c(O)c(C(C)(C)C)c1,9.12
16,COc1ccc(S(=O)(=O)c2c(O)c3ccc(C(=O)Nc4ccccc4F)cc3[nH]c2=O)cc1,9.37
17,COc1ccc(OC)c(S(=O)(=O)N2CCC(C(=O)Nc3cccc(C)c3C)CC2)c1,19.1
18,Cc1cccc(-c2n[nH]c(S(C)(=O)=O)c2C#N)c1,3.02
19,CC(=O)c1c(C)[nH]c(C(=O)N2CCN(c3cc(Cl)ccc3C)CC2)c1C,14.8
20,O=C(COC(=O)CNC(=O)c1ccc(Cl)cc1Cl)NC(=O)NCc1ccccc1,16.1
21,CCCCCCOc1ccc(N2C(=O)CC(N3CCN(CCN=CC4=C(O)CC(C)(C)CC4=O)CC3)C2=O)cc1 (stereo not drawn),5.84
22,COc1ccc(Nc2nc3ccccc3c(=O)[nH]2)cc1,6.29
23,COc1ccc2c(c1)CC/C2=N\OC(=O)c1cccc(C)c1,3.03

row,SMILES,"hERG current change (%, negative = inhibition) at 1uM [%]"
1,CCOC(=O)c1sc(Nc2ccc(F)cc2)nc1C,11.4
2,CCOC(=O)CC(=O)CSc1nc2c(sc(=S)n2-c2ccc(C)c(C)c2)c(=O)[nH]1,11.8
3,CCC1CCCCN1CC(=O)c1c(C)[nH]c2ccc(OC)cc12 (stereo not drawn),-5.25
4,C=CCNC(=O)c1cc2cccc(OC)c2oc1=O,15.6
5,C/C(=N\Nc1nc2ccccc2nc1C)c1ccccc1O,3.65
6,CSc1nc(NCc2ccco2)c2ccccc2n1,4.95
7,O=C(Nc1ccc(S(=O)(=O)Nc2nccs2)cc1)C1=NN(c2ccccc2)C(=O)CC1,15
8,Cc1c(C(=O)N(C)C(C)c2ccncn2)oc2c(F)cccc12 (stereo not drawn),11.5
9,COc1ccccc1N1CCN(/N=C/C(Cl)=C/c2ccccc2)CC1,11
10,Cc1ccc(NC(=S)c2nc3ccccc3s2)cc1,7.76
11,Cc1ccc2nc(Cl)c(C3CC(c4cccs4)=NN3C(=O)CCC(=O)O)cc2c1 (stereo not drawn),19.4
12,Cc1ccc(Cl)cc1N(C)C(=O)Cn1ncc2c([nH]c3ccccc32)c1=O,14.2
13,CCOC(=O)c1c(C)c(C(=O)NCC2CCCO2)c(C)n1CC (stereo not drawn),-11.9
14,O=c1ccc(-c2ccccc2)nn1Cc1ccc(Cl)cc1,8.24
15,CN(c1ccccc1)c1nc(N)c([N+](=O)[O-])c(N2CCCCCC2)n1,18.8
16,COc1cc(CCC(=O)Nc2nccs2)cc(OC)c1OC,16.2
17,Cc1ccc(C(=O)NCc2ccncc2)cc1S(=O)(=O)N1CCOCC1,15.1
18,O=C(c1ccncc1)N1N=C(c2ccc(Br)cc2)CC1c1ccccc1O (stereo not drawn),7.41
19,COC(=O)C1=C(C)Nc2nnnn2C1c1cc(OC)ccc1OC (stereo not drawn),12.7
20,Cc1ccc(C)c(C(=O)Nc2nc3ccccc3[nH]2)c1,16.9
21,C=CCC1c2cccc(C(=O)OC)c2C(=O)N1c1ccccc1 (stereo not drawn),12.3
22,CCOC(=O)C1CCN(C(=O)c2cnn3c(C)cc(C)nc23)CC1,5.22
23,CSc1ccc(C2c3[nH]c4ccccc4c3CCN2C(=O)c2cc(C)n(C)n2)cc1 (stereo not drawn),24.8

row,SMILES,"hERG current change (%, negative = inhibition) at 1uM [%]"
1,CC(C)C(=O)Nc1sc2c(c1C#N)CCCCC2,14.6
2,CC(C)Cc1cc(C(=O)Nc2c(F)cc(F)cc2Br)no1,-13.4
3,CCCc1cc(=O)oc2c(C)c(OCC(=O)N3C[C@H]4C[C@@H](C3)c3cccc(=O)n3C4)ccc12,5.33
4,Cc1cc(C)c(S(=O)(=O)N2CCN(CCO)CC2)c(C)c1,6.94
5,CCc1nn(CC(=O)NCCCN2CCN(C)CC2)c(=O)c2cc3occc3n12,11.5
6,CCOC(=O)Cn1ccc(O)c(Cc2ccc(Cl)cc2Cl)c1=O,0.857
7,C[C@@H]1C[C@H]2[C@@H]3C[C@H](F)C4=CC(=O)C=C[C@]4(C)[C@@]3(Cl)[C@@H](O)C[C@]2(C)[C@H]1C(=O)COC(=O)C(C)(C)C,12.6
8,COc1ccc(NC(=O)/C(C#N)=C/c2ccc[nH]2)c(OC)c1,9.42
9,COc1ccc(NC(=O)COc2ccccc2Cc2ccccc2)cn1,7.54
10,COc1ccc(/C=C2\CCCc3c2nc2ccc(C)cc2c3C(=O)O)cc1O,17.6
11,O=C(O)CCN=C1CCCc2ccccc2N1,7.93
12,COc1cc(C)nc(-c2csc(C)n2)n1,5.76
13,COc1ccc(N2CC(C(=O)N3CCC4(CC3)CC(=O)c3ccccc3O4)CC2=O)cc1 (stereo not drawn),-34.8
14,O=S(=O)(Nc1ccc(-c2ccc3nncn3n2)cc1)c1ccc(Cl)s1,-2.82
15,O=C1C2CC=CCC2C(=O)N1c1ccc(NCCc2ccccc2)c([N+](=O)[O-])c1 (stereo not drawn),16.4
16,Cc1c(C(=O)Nc2ccc(-c3nnc4n3CCCCC4)cc2)oc2ccc(Br)cc12,15.1
17,OCc1ccnc2c(O)cccc12,5.05
18,COC(=O)c1[nH]c2ccc(Br)cc2c1NC(=O)CN1CCCc2ccccc21,8.7
19,C=CCN(CC=C)CC(=O)Nc1cccc(Oc2cnccn2)c1,17.7
20,COc1ccccc1C(=O)NC(=O)COC(=O)C1(C)CC1(Cl)Cl (stereo not drawn),7.58
21,CC(Cc1ccccc1)N1C(=O)c2cccc([N+](=O)[O-])c2C1=O (stereo not drawn),16
